# The list shows a part of the results.
# B1: cupB6 (Pseudomonas aeruginosa), Q02SP7 (protein)
# chain: MSMRLFPGRVSLRRRPGAQARQALVLGLCCLTGGQAWALNEVALNCSFGNGKGLPWRVVNELTSGTAKGTVLFARPVSLFLSYKPQASQEAHELVLGGNWSGVGYPGPYGTVASDVKGIGYRISVDAQDGVKRVIPVDNQPHALDKRVTSFSGSTTSDYLQELVLTVDPGELPAGDLKVTSVSGSATLNLWAVDRLKGEASIGSVLAVPADNYPTGVCRKPYSLIGPASIAIGGGPPPPPIPKKCKVEVGREINVKLGSVALKNFPRVNDTSTERSFDISLSECAALAKPEIAFRDKYVSAQQADPTILSLKSGGAAGFGIVVKNGLDQQRIRFDGTPYPMRRVGDSADLPLSAAYIRIGAEGELKAGVADGAAEFTFTFP
# Experiments:
# Assay in all cases: glycan array binding signal (z-score within array); higher = stronger binding
# Conditions in all cases: glycan notation: IUPAC condensed, linker removed
# [1] = biological target: Gal(b1-3)GlcNAc(b1-2)Man(a1-3)[Gal(b1-3)GlcNAc(b1-2)Man(a1-6)]Man(b1-4)GlcNAc(b1-4)[Fuc(a1-6)]GlcNAc
# Summary of the method: (§1)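 From the Consortium for Functional Glycomics database, 3228 arrays were curated, keeping only those whose protein sequence was available. Binding is given as a within-array Z-score averaged across arrays sharing a protein sequence and across linkers. Negative Z-scores can be read as non-binding.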
# [2] = biological target: Gal(b1-3)GlcNAc(b1-3)Gal(b1-3)GlcNAc
# Summary of the method: as §1
# [3] = biological target: Gal(b1-3)GlcNAc(b1-3)Gal(b1-4)Glc
# Summary of the method: as §1
# [4] = biological target: Gal(b1-3)GlcNAc(b1-3)Gal(b1-4)GlcNAc
# Summary of the method: as §1
# [5] = biological target: Gal(b1-3)GlcNAc(b1-3)Gal(b1-4)GlcNAc(b1-6)[Gal(b1-3)GlcNAc(b1-3)]Gal(b1-4)Glc
# Summary of the method: as §1
# [6] = biological target: Gal(b1-3)GlcNAc(b1-3)Gal(b1-4)[Fuc(a1-3)]GlcNAc(b1-6)[Gal(b1-3)GlcNAc(b1-3)]Gal(b1-4)Glc
# Summary of the method: as §1
# [7] = biological target: Gal(b1-3)GlcNAc(b1-3)GalNAc
# Summary of the method: as §1
# [8] = biological target: Gal(b1-3)GlcNAc(b1-6)Gal(b1-4)GlcNAc
# Summary of the method: as §1
# [9] = biological target: Gal(b1-3)[Fuc(a1-4)]GlcNAc
# Summary of the method: as §1
# [10] = biological target: Gal(b1-3)[Fuc(a1-4)]GlcNAc(b1-2)Man(a1-3)[Gal(b1-3)[Fuc(a1-4)]GlcNAc(b1-2)Man(a1-6)]Man(b1-4)GlcNAc(b1-4)GlcNAc
# Summary of the method: as §1
# [11] = biological target: Gal(b1-3)[Fuc(a1-4)]GlcNAc(b1-2)Man(a1-3)[Gal(b1-3)[Fuc(a1-4)]GlcNAc(b1-2)Man(a1-6)]Man(b1-4)GlcNAc(b1-4)[Fuc(a1-6)]GlcNAc
# Summary of the method: as §1
# [12] = biological target: Gal(b1-3)[Fuc(a1-4)]GlcNAc(b1-3)Gal(b1-3)[Fuc(a1-4)]GlcNAc
# Summary of the method: as §1
# [13] = biological target: Gal(b1-3)[Fuc(a1-4)]GlcNAc(b1-3)Gal(b1-4)GlcNAc
# Summary of the method: as §1
# [14] = biological target: Gal(b1-3)[Fuc(a1-4)]GlcNAc(b1-3)Gal(b1-4)[Fuc(a1-3)]GlcNAc
# Summary of the method: as §1
# [15] = biological target: Gal(b1-3)[GlcNAc(b1-6)]GalNAc
# Summary of the method: as §1
# [16] = biological target: Gal(b1-3)[Neu5Ac(a2-6)]GalNAc
# Summary of the method: as §1
# [17] = biological target: Gal(b1-3)[Neu5Ac(a2-6)]GlcNAc(b1-6)Gal(b1-4)Glc
# Summary of the method: as §1
# [18] = biological target: Gal(b1-3)[Neu5Ac(b2-6)]GalNAc
# Summary of the method: as §1
# [19] = biological target: Gal(b1-4)GalNAc(a1-3)[Fuc(a1-2)]Gal(b1-4)GlcNAc
# Summary of the method: as §1
# [20] = biological target: Gal(b1-4)GalNAc(b1-3)[Fuc(a1-2)]Gal(b1-4)GlcNAc
# Summary of the method: as §1
# Gal(b1-4)Glc = biological target: Gal(b1-4)Glc
# Summary of the method: as §1
# Gal(b1-4)Glc6S = biological target: Gal(b1-4)Glc6S
# Summary of the method: as §1
# Gal(b1-4)GlcNAc = biological target: Gal(b1-4)GlcNAc
# Summary of the method: as §1
# [21] = biological target: Gal(b1-4)GlcNAc(a1-6)Gal(b1-4)GlcNAc
# Summary of the method: as §1
# [22] = biological target: Gal(b1-4)GlcNAc(b1-2)Man(a1-3)Man(b1-4)GlcNAc(b1-4)GlcNAc
# Summary of the method: as §1
# [23] = biological target: Gal(b1-4)GlcNAc(b1-2)Man(a1-3)[Gal(b1-4)GlcNAc(b1-2)Man(a1-6)]Man(b1-4)GlcNAc(b1-4)GlcNAc
# Summary of the method: as §1
# [24] = biological target: Gal(b1-4)GlcNAc(b1-2)Man(a1-3)[Gal(b1-4)GlcNAc(b1-2)Man(a1-6)]Man(b1-4)GlcNAc(b1-4)[Fuc(a1-6)]GlcNAc
# Summary of the method: as §1
# [25] = biological target: Gal(b1-4)GlcNAc(b1-2)Man(a1-3)[GlcNAc(b1-2)Man(a1-6)]Man(b1-4)GlcNAc(b1-4)GlcNAc
# Summary of the method: as §1
# [26] = biological target: Gal(b1-4)GlcNAc(b1-2)Man(a1-3)[Man(a1-6)]Man(b1-4)GlcNAc(b1-4)GlcNAc
# Summary of the method: as §1
# [27] = biological target: Gal(b1-4)GlcNAc(b1-2)Man(a1-6)Man(b1-4)GlcNAc(b1-4)GlcNAc
# Summary of the method: as §1
# [28] = biological target: Gal(b1-4)GlcNAc(b1-2)Man(a1-6)[GlcNAc(b1-2)Man(a1-3)]Man(b1-4)GlcNAc(b1-4)GlcNAc
# Summary of the method: as §1
# [29] = biological target: Gal(b1-4)GlcNAc(b1-2)Man(a1-6)[Man(a1-3)]Man(b1-4)GlcNAc(b1-4)GlcNAc
# Summary of the method: as §1
# [30] = biological target: Gal(b1-4)GlcNAc(b1-2)[Gal(b1-4)GlcNAc(b1-4)]Man(a1-3)[Gal(b1-4)GlcNAc(b1-2)Man(a1-6)]Man(b1-4)GlcNAc(b1-4)GlcNAc
# Summary of the method: as §1
# [31] = biological target: Gal(b1-4)GlcNAc(b1-2)[Gal(b1-4)GlcNAc(b1-4)]Man(a1-3)[Gal(b1-4)GlcNAc(b1-2)[Gal(b1-4)GlcNAc(b1-6)]Man(a1-6)]Man(b1-4)GlcNAc(b1-4)GlcNAc
# Summary of the method: as §1
# [32] = biological target: Gal(b1-4)GlcNAc(b1-3)Gal(b1-3)GlcNAc
# Summary of the method: as §1
# [33] = biological target: Gal(b1-4)GlcNAc(b1-3)Gal(b1-4)Glc
# Summary of the method: as §1
# [34] = biological target: Gal(b1-4)GlcNAc(b1-3)Gal(b1-4)GlcNAc
# Summary of the method: as §1
# [35] = biological target: Gal(b1-4)GlcNAc(b1-3)Gal(b1-4)GlcNAc(b1-3)Gal(b1-4)GlcNAc
# Summary of the method: as §1
binder,measurement,setting,value
B1,glycan array binding signal (z-score),[1],-0.211
same,glycan array binding signal (z-score),[2],-0.192
same,glycan array binding signal (z-score),[3],0.031
same,glycan array binding signal (z-score),[4],-0.004
same,glycan array binding signal (z-score),[5],0.05
same,glycan array binding signal (z-score),[6],0.062
same,glycan array binding signal (z-score),[7],-0.121
same,glycan array binding signal (z-score),[8],0
same,glycan array binding signal (z-score),[9],-0.046
same,glycan array binding signal (z-score),[10],0.019
same,glycan array binding signal (z-score),[11],0.028
same,glycan array binding signal (z-score),[12],0.014
same,glycan array binding signal (z-score),[13],0.149
same,glycan array binding signal (z-score),[14],-0.016
same,glycan array binding signal (z-score),[15],-0.159
same,glycan array binding signal (z-score),[16],-0.135
same,glycan array binding signal (z-score),[17],-0.034
same,glycan array binding signal (z-score),[18],0.007
same,glycan array binding signal (z-score),[19],-0.01
same,glycan array binding signal (z-score),[20],-0.036
same,glycan array binding signal (z-score),Gal(b1-4)Glc,-0.087
same,glycan array binding signal (z-score),Gal(b1-4)Glc6S,-0.038
same,glycan array binding signal (z-score),Gal(b1-4)GlcNAc,-0.102
same,glycan array binding signal (z-score),[21],0.171
same,glycan array binding signal (z-score),[22],0.035
same,glycan array binding signal (z-score),[23],-0.265
same,glycan array binding signal (z-score),[24],0.09
same,glycan array binding signal (z-score),[25],0.09
same,glycan array binding signal (z-score),[26],0.195
same,glycan array binding signal (z-score),[27],-0.11
same,glycan array binding signal (z-score),[28],-0.135
same,glycan array binding signal (z-score),[29],0.004
same,glycan array binding signal (z-score),[30],-0.006
same,glycan array binding signal (z-score),[31],-0.092
same,glycan array binding signal (z-score),[32],0.008
same,glycan array binding signal (z-score),[33],-0.133
same,glycan array binding signal (z-score),[34],-0.185
same,glycan array binding signal (z-score),[35],-0.146

# Reference: the supplement of paper PMC8728848
